Among the data in the supplement of paper PMC4604168 (melanoma cell lines) are cell count values, retold here.

The other results are listed elsewhere or left out. Single values are uncertain, as repeats are few or missing.
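Further: cells treated in 1,536-well plates, then fixed and DAPI-stained, with nuclei counted from automated high-throughput microscope images.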

For this assay, the system named is UACC257. Kind of assay: cell count relative to DMSO control; melanoma cells; higher = more viable cells. Conditions: library dose: standard library concentration; 72 h.
In the case of `N#CC[C@H](C1CCCC1)n1cc(-c2ncnc3[nH]ccc23)cn1` [ruxolitinib] + NC(=O)Nc1cc(-c2cccc(F)c2)sc1C(=O)N[C@H]1CCCNC1 [AZD7762] (first compound 5 µM, partner dose 0.1 µM), the cell count worked out at 103%.

On to `N#CC[C@H](C1CCCC1)n1cc(-c2ncnc3[nH]ccc23)cn1` [ruxolitinib] + O=C(Nc1cccc(Cl)c1)Nc1ncc(CCNc2ncnc3ccsc23)s1 [SNS314] (first compound 5 µM, partner dose 0.004 µM), for which the cell count was determined as 66.8%.

For `N#CC[C@H](C1CCCC1)n1cc(-c2ncnc3[nH]ccc23)cn1` [ruxolitinib] + CN(NC(=O)CC(=O)NN(C)C(=S)c1ccccc1)C(=S)c1ccccc1 [STA4783] (first compound 5 µM, partner dose 0.03 µM), the cell count came out at 100%.

With `N#CC[C@H](C1CCCC1)n1cc(-c2ncnc3[nH]ccc23)cn1` [ruxolitinib] + O=C(CCCCCCC(=O)Nc1ccccc1)NO [vorinostat] (first compound 5 µM, partner dose 0.4 µM), the cell count was 83.3%.

With `Cc1cc(Nc2cc(N3CCN(C)CC3)nc(Sc3ccc(NC(=O)C4CC4)cc3)n2)n[nH]1` [Tozasertib] + OCCn1cc(-c2cnc3nnn(Cc4ccc5ncccc5c4)c3n2)cn1 [PF04217903] (first compound 0.03 µM, partner dose 5 µM), the cell count was found to be 89.8%.

Regarding `N#CC[C@H](C1CCCC1)n1cc(-c2ncnc3[nH]ccc23)cn1` [ruxolitinib] + Cc1cc(N2CCOCC2)cc2[nH]c(-c3c(NC[C@@H](O)c4cccc(Cl)c4)cc[nH]c3=O)nc12 [BMS536924] (first compound 5 µM, partner dose 1 µM), the cell count is 91.3%.

In turn, `N#CC[C@H](C1CCCC1)n1cc(-c2ncnc3[nH]ccc23)cn1` [ruxolitinib] + C=CCn1c(=O)c2cnc(Nc3ccc(N4CCN(C)CC4)cc3)nc2n1-c1cccc(C(C)(C)O)n1 [MK1775] (first compound 5 µM, partner dose 0.1 µM) returned a cell count of 85.1%.

The compound `N#CC[C@H](C1CCCC1)n1cc(-c2ncnc3[nH]ccc23)cn1` [ruxolitinib] + C[C@@H]1CCN(C(=O)CC#N)C[C@@H]1N(C)c1ncnc2[nH]ccc12 [CP690550] (first compound 5 µM, partner dose 5 µM) yielded a cell count of 88%.

`CC[C@]1(O)C[C@H]2CN(CCc3c([nH]c4ccccc34)[C@@](C(=O)OC)(c3cc4c(cc3OC)N(C=O)[C@H]3[C@@](O)(C(=O)OC)[C@H](OC(C)=O)[C@]5(CC)C=CCN6CC[C@]43[C@@H]65)C2)C1` [vincristine] + CN(C)S(=O)(=O)c1ccc2c(c1)/C(=C/c1cc3c([nH]1)CCCC3)C(=O)N2 [SU6656] (first compound 0.0005 µM, partner dose 2 µM) showed a cell count of 54.6%.

Turning to `Cc1cc(Nc2cc(N3CCN(C)CC3)nc(Sc3ccc(NC(=O)C4CC4)cc3)n2)n[nH]1` [Tozasertib] + Cc1cc(N2CCOCC2)cc2[nH]c(-c3c(NC[C@@H](O)c4cccc(Cl)c4)cc[nH]c3=O)nc12 [BMS536924] (first compound 0.03 µM, partner dose 1 µM), the cell count was 97.2%.

For `N#CC[C@H](C1CCCC1)n1cc(-c2ncnc3[nH]ccc23)cn1` [ruxolitinib] + Cn1c(Nc2ccc(C(F)(F)F)cc2)nc2cc(Oc3ccnc(-c4ncc(C(F)(F)F)[nH]4)c3)ccc21 [CHIR265] (first compound 5 µM, partner dose 0.4 µM), the cell count is 79.1%.

For the compound `CC[C@]1(O)C[C@H]2CN(CCc3c([nH]c4ccccc34)[C@@](C(=O)OC)(c3cc4c(cc3OC)N(C=O)[C@H]3[C@@](O)(C(=O)OC)[C@H](OC(C)=O)[C@]5(CC)C=CCN6CC[C@]43[C@@H]65)C2)C1` [vincristine] + Cc1ccc(NC(=O)c2cccc(N(C)C)c2)cc1NC(=O)c1ccc(O)cc1 [ZM336372] (first compound 0.0005 µM, partner dose 10 µM), the cell count came to 81.6%.

`N#CC[C@H](C1CCCC1)n1cc(-c2ncnc3[nH]ccc23)cn1` [ruxolitinib] + Cc1ccc(NC(=O)c2cccc(N(C)C)c2)cc1NC(=O)c1ccc(O)cc1 [ZM336372] (first compound 5 µM, partner dose 10 µM): the cell count was determined as 85.1%.

In turn, `Cc1cc(Nc2cc(N3CCN(C)CC3)nc(Sc3ccc(NC(=O)C4CC4)cc3)n2)n[nH]1` [Tozasertib] + CO[C@@H]1[C@H](N(C)C(=O)c2ccccc2)C[C@H]2O[C@]1(C)n1c3ccccc3c3c4c(c5c6ccccc6n2c5c31)C(=O)NC4 [Midostaurin] (first compound 0.03 µM, partner dose 0.4 µM) showed a cell count of 60.3%.

Regarding `N#CC[C@H](C1CCCC1)n1cc(-c2ncnc3[nH]ccc23)cn1` [ruxolitinib] + COc1cc(Nc2ncc(F)c(Nc3ccc4c(n3)NC(=O)C(C)(C)O4)n2)cc(OC)c1OC [Tamatinib] (first compound 5 µM, partner dose 2 µM), the cell count was 73.8%.

The compound `Cc1cc(Nc2cc(N3CCN(C)CC3)nc(Sc3ccc(NC(=O)C4CC4)cc3)n2)n[nH]1` [Tozasertib] + O=C(O)c1ccc(-c2c[nH]c3ncc(-c4ccccc4)cc23)cc1C1CCCC1 [GSK650394] (first compound 0.03 µM, partner dose 0.8 µM) yielded a cell count of 77.1%.

`Cc1cc(Nc2cc(N3CCN(C)CC3)nc(Sc3ccc(NC(=O)C4CC4)cc3)n2)n[nH]1` [Tozasertib] + COc1cc(Nc2ncc(F)c(Nc3ccc4c(n3)NC(=O)C(C)(C)O4)n2)cc(OC)c1OC [Tamatinib] (first compound 0.03 µM, partner dose 2 µM) had a cell count of 71.6%.

The compound `Cc1cc(Nc2cc(N3CCN(C)CC3)nc(Sc3ccc(NC(=O)C4CC4)cc3)n2)n[nH]1` [Tozasertib] + Cn1cncc1[C@@](N)(c1ccc(Cl)cc1)c1ccc2c(c1)c(-c1cccc(Cl)c1)cc(=O)n2C [tipifarnib] (first compound 0.03 µM, partner dose 0.05 µM) came in with a cell count of 87.9%.

For the compound `CC[C@]1(O)C[C@H]2CN(CCc3c([nH]c4ccccc34)[C@@](C(=O)OC)(c3cc4c(cc3OC)N(C=O)[C@H]3[C@@](O)(C(=O)OC)[C@H](OC(C)=O)[C@]5(CC)C=CCN6CC[C@]43[C@@H]65)C2)C1` [vincristine] + NC(=O)Nc1cc(-c2cccc(F)c2)sc1C(=O)N[C@H]1CCCNC1 [AZD7762] (first compound 0.0005 µM, partner dose 0.1 µM), the cell count is 76.4%.

Compound `Cc1cc(Nc2cc(N3CCN(C)CC3)nc(Sc3ccc(NC(=O)C4CC4)cc3)n2)n[nH]1` [Tozasertib] + CN(C)S(=O)(=O)c1ccc2c(c1)/C(=C/c1cc3c([nH]1)CCCC3)C(=O)N2 [SU6656] (first compound 0.03 µM, partner dose 2 µM) displayed a cell count of 86%.

For `N#CC[C@H](C1CCCC1)n1cc(-c2ncnc3[nH]ccc23)cn1` [ruxolitinib] + COc1cc2c(Oc3ccc4[nH]c(C)cc4c3F)ncnc2cc1OCCCN1CCCC1 [cediranib] (first compound 5 µM, partner dose 2 µM), the cell count is 92.7%.

Compound `CC[C@]1(O)C[C@H]2CN(CCc3c([nH]c4ccccc34)[C@@](C(=O)OC)(c3cc4c(cc3OC)N(C=O)[C@H]3[C@@](O)(C(=O)OC)[C@H](OC(C)=O)[C@]5(CC)C=CCN6CC[C@]43[C@@H]65)C2)C1` [vincristine] + COc1cc2c(Oc3ccc4[nH]c(C)cc4c3F)ncnc2cc1OCCCN1CCCC1 [cediranib] (first compound 0.0005 µM, partner dose 2 µM) returned a cell count of 79.8%.

`CC[C@]1(O)C[C@H]2CN(CCc3c([nH]c4ccccc34)[C@@](C(=O)OC)(c3cc4c(cc3OC)N(C=O)[C@H]3[C@@](O)(C(=O)OC)[C@H](OC(C)=O)[C@]5(CC)C=CCN6CC[C@]43[C@@H]65)C2)C1` [vincristine] + O=C(Nc1cccc(Cl)c1)Nc1ncc(CCNc2ncnc3ccsc23)s1 [SNS314] (first compound 0.0005 µM, partner dose 0.004 µM) came in with a cell count of 58.5%.
